Reference: the supplement of paper PMC9135407
Values joined by “and” are separate entries in the source; they are usually repeats but may differ in a detail not shown here. Equal entries are not always repeated. Structures can show the parent of a compound that is named as a salt. The campaign covered roughly 5,800 compounds. About 620 (11%) showed activity.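 Rule for the calls: active = score above a cut-off or among the top three wells of a plate; in these data no inactive exceeds 0.85.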 Only a part is listed here, and it is no random draw.

Test system: primary human hepatic stellate cells (donor 1)
Assay: scaled lipid accumulation score (0 = DMSO-like, 1 = nortriptyline-like); higher = stronger HSC inactivation (lipid re-accumulation), active = hit call of the paper
Settings: 48 h
[1] = library stock concentration: 1 mM
[2] = library stock concentration: 10 mM
[3] = library stock concentration: 80 uM
[4] = library stock concentration: 400 uM
[5] = library stock concentration: 2 mM
[6] = library stock concentration: 3.33 mM

## CCCCCCCCCCCCCCCCOC[C@H](CO)OC(C)=O [Hexadecyl Acetyl Glycerol]
[1]
  scaled lipid accumulation score: inactive: ≤ 0

## Clc1ccc2c(c1)C(N1CCNCC1)=Nc1ccccc1O2 [Amoxapine]
[2]
  scaled lipid accumulation score: active: 1.05

## O=c1sn(-c2cccc3ccccc23)c(=O)n1Cc1ccccc1 [Tideglusib]
[3]
  scaled lipid accumulation score: inactive: ≤ 0
[4]
  scaled lipid accumulation score: inactive: 0.037
[5]
  scaled lipid accumulation score: inactive: 0.351
[2]
  scaled lipid accumulation score: inactive: 0.769

## COc1ccc2c(c1)c(C1=C(c3c[nH]c4ccccc34)C(=O)NC1=O)cn2CCCN(C)C
[1]
  scaled lipid accumulation score: inactive: 0.018
[6]
  scaled lipid accumulation score: inactive: 0.054 and inactive: ≤ 0
[2]
  scaled lipid accumulation score: inactive: 0.706

## O=c1cc(-c2ccccc2)oc2cc(O)cc(O)c12 [Chrysin]
  scaled lipid accumulation score: inactive: 0.048
[6]
  scaled lipid accumulation score: inactive: ≤ 0
[2]
  scaled lipid accumulation score: inactive: ≤ 0 and inactive: 0.161

## O=C(/C=C/c1ccc(O)c(O)c1)c1ccc(O)cc1O [Butein]
[6]
  scaled lipid accumulation score: inactive: ≤ -0.009
[2]
  scaled lipid accumulation score: inactive: 0.299

## CC[C@H]1OC(=O)C[C@@H](O)[C@H](C)[C@@H](O[C@@H]2O[C@H](C)[C@@H](O[C@H]3C[C@@](C)(O)[C@@H](O)[C@H](C)O3)[C@H](N(C)C)[C@H]2O)[C@@H](CC=O)C[C@@H](C)C(=O)/C=C/C(C)=C/[C@@H]1CO[C@@H]1O[C@H](C)[C@@H](O)[C@@H](OC)[C@H]1OC [Tylosin tartrate]
[2]
  scaled lipid accumulation score: inactive: 0.119

## O=C(CCCCCCC(=O)Nc1ccccc1)NO [Vorinostat]
[3]
  scaled lipid accumulation score: inactive: ≤ 0
[4]
  scaled lipid accumulation score: inactive: ≤ 0
[5]
  scaled lipid accumulation score: inactive: ≤ 0
[2]
  scaled lipid accumulation score: inactive: 0.451

## O=C(CCCCCCC(=O)Nc1ccccc1)NO
[2]
  scaled lipid accumulation score: inactive: 0.632

## O=C(CCCCCCC(=O)Nc1ccccc1)NO [Vorinostat (SAHA, MK0683)]
[6]
  scaled lipid accumulation score: inactive: 0.513
[2]
  scaled lipid accumulation score: inactive: 0.397

## CCc1ccc2c(-c3cccc(Cl)c3)nc(=O)n(CC)c2n1
[2]
  scaled lipid accumulation score: inactive: ≤ 0 and inactive: 0.01

## CNS(=O)(=O)c1ccc(NC(=O)c2ccccc2C(=O)O)cc1 [Phthalysulfathiazole]
Library stock concentration: 4.8 mM
  scaled lipid accumulation score: inactive: ≤ 0

## CCCCCC(O)C=CC1C=CC(=O)C1CCCCCCC(=O)O (stereo not drawn) [15-epi Prostaglandin A1]
[1]
  scaled lipid accumulation score: inactive: ≤ 0

## CCCCCC(O)C=CC1C=CC(=O)C1CCCCCCC(=O)O (configuration not stated) [8-iso Prostaglandin A1]
[1]
  scaled lipid accumulation score: inactive: ≤ 0

## COC(=O)C1=C(C)NC(C)=C(C(=O)OC2CCCN(Cc3ccccc3)C2)C1c1cccc([N+](=O)[O-])c1 (configuration not stated) [Benidipine HCl]
[6]
  scaled lipid accumulation score: inactive: 0.027
[2]
  scaled lipid accumulation score: inactive: 0.476

## COC(=O)C1=C(C)NC(C)=C(C(=O)OC2CCCN(Cc3ccccc3)C2)C1c1cccc([N+](=O)[O-])c1 (configuration not stated)
[2]
  scaled lipid accumulation score: inactive: 0.032

## CCNC(=O)CCC/C=C\C[C@@H]1[C@@H](/C=C/[C@@H](O)CCc2ccccc2)[C@H](O)C[C@@H]1O [Bimatoprost]
[6]
  scaled lipid accumulation score: inactive: ≤ 0
[2]
  scaled lipid accumulation score: inactive: ≤ 0

## COc1ccc(S(=O)(=O)Nc2cccnc2Nc2ccc(O)cc2)cc1
[3]
  scaled lipid accumulation score: inactive: ≤ -0.016
[4]
  scaled lipid accumulation score: inactive: ≤ -0.016
[5]
  scaled lipid accumulation score: inactive: ≤ -0.016
[6]
  scaled lipid accumulation score: inactive: 0.183
[2]
  scaled lipid accumulation score: inactive: 0.12 and inactive: 0.192

## C[C@]12C[C@H](O)[C@H]3[C@@H](CCC4=CC(=O)CC[C@@]43C)[C@@H]1CC[C@@H]2C(=O)CO [Corticosterone]
  scaled lipid accumulation score: inactive: 0.166
Library stock concentration: 5.8 mM
  scaled lipid accumulation score: inactive: ≤ 0
[2]
  scaled lipid accumulation score: inactive: 0.132

## C[C@]12C[C@H](O)[C@H]3[C@@H](CCC4=CC(=O)CC[C@@]43C)[C@@H]1CC[C@@H]2C(=O)CO
[2]
  scaled lipid accumulation score: inactive: 0.039

## Cc1ccc(NC(=O)c2cccc(N(C)C)c2)cc1NC(=O)c1ccc(O)cc1
[2]
  scaled lipid accumulation score: inactive: ≤ -0.004

## CC1(C)O[C@@H]2C[C@H]3[C@@H]4CCC5=CC(=O)C=C[C@]5(C)[C@H]4[C@@H](O)C[C@]3(C)[C@]2(C(=O)CO)O1
[2]
  scaled lipid accumulation score: inactive: ≤ 0

## CC1(C)O[C@@H]2C[C@H]3[C@@H]4CCC5=CC(=O)C=C[C@]5(C)[C@H]4[C@@H](O)C[C@]3(C)[C@]2(C(=O)CO)O1 [Desonide]
[6]
  scaled lipid accumulation score: inactive: 0.006
[2]
  scaled lipid accumulation score: inactive: ≤ 0

## O=C(O)c1ccc2c(c1)nc(Nc1cccc(Cl)c1)c1ccncc12 [CX-4945 (Silmitasertib)]
[6]
  scaled lipid accumulation score: inactive: ≤ 0
[2]
  scaled lipid accumulation score: inactive: ≤ 0

## O=C(O)c1ccc2c(c1)nc(Nc1cccc(Cl)c1)c1ccncc12
[4]
  scaled lipid accumulation score: inactive: ≤ -0.005
[5]
  scaled lipid accumulation score: inactive: ≤ -0.005
[2]
  scaled lipid accumulation score: inactive: ≤ -0.005

## c1ccc(-c2ccccn2)nc1 [2,2'-Bipyridyl]
[2]
  scaled lipid accumulation score: inactive: 0.067

## COc1ccccc1N1CCN(CCN(C(=O)c2ccc(F)cc2)c2ccccn2)CC1 [p-MPPF dihydrochloride]
[2]
  scaled lipid accumulation score: inactive: ≤ -0.055

## O=C1CC(=O)c2c(Cl)c(Cl)c(Cl)c(Cl)c21
[6]
  scaled lipid accumulation score: inactive: ≤ -0.009
[2]
  scaled lipid accumulation score: inactive: 0.011

## Nc1nonc1C(=Nc1ccc(F)c(Cl)c1)NO
[6]
  scaled lipid accumulation score: inactive: ≤ -0.009
[2]
  scaled lipid accumulation score: inactive: ≤ 0

## Cl.Cl.O=S(=O)(NCCNC/C=C/c1ccc(Br)cc1)c1cccc2cnccc12 [H 89 dihydrochloride]
[2]
  scaled lipid accumulation score: active: 1.26

## NCCCCCNCC12CC3CC(CC(C3)C1)C2 [IEM 1754 dihydrobroMide]
[6]
  scaled lipid accumulation score: inactive: 0.109
[2]
  scaled lipid accumulation score: inactive: 0.358

## Oc1ccc(Cn2cc[nH]c2=S)cc1 [1-(4-Hydroxybenzyl)imidazole-2-thiol]
[2]
  scaled lipid accumulation score: inactive: ≤ -0.07

## Cc1ccccc1-c1cccc(N2CCC(N3CCN(C)C(C)C3)CC2)c1 (configuration not stated)
[2]
  scaled lipid accumulation score: active: 1.05

## CC(=O)N[C@@H](CS)C(=O)O [N-Acetyl-L-Cysteine]
[2]
  scaled lipid accumulation score: inactive: ≤ 0

## CC(=O)N[C@@H](CS)C(=O)O [Acetylcysteine]
[6]
  scaled lipid accumulation score: inactive: ≤ 0
[2]
  scaled lipid accumulation score: inactive: ≤ 0
Library stock concentration: 12.3 mM
  scaled lipid accumulation score: inactive: 0.005

## C[C@]1(c2nc3c(C(N)=O)cccc3[nH]2)CCCN1 [Veliparib]
[3]
  scaled lipid accumulation score: inactive: 0.0075
[4]
  scaled lipid accumulation score: inactive: ≤ -0.0045
[5]
  scaled lipid accumulation score: inactive: ≤ -0.0045
[2]
  scaled lipid accumulation score: inactive: ≤ -0.0045

## C[C@]1(c2nc3c(C(N)=O)cccc3[nH]2)CCCN1 [Veliparib (ABT-888)]
[6]
  scaled lipid accumulation score: inactive: ≤ 0
[2]
  scaled lipid accumulation score: inactive: ≤ 0

## CCCCCC(=O)CC[C@H]1C(=O)C[C@H](O)[C@@H]1C/C=C\CCCC(=O)O [13,14-dihydro-15-keto Prostaglandin D2]
[1]
  scaled lipid accumulation score: inactive: ≤ 0

## N#C/C(=C\c1ccc(O)c(O)c1)C(=O)NCCc1ccccc1 [Tyrphostin AG 698]
[2]
  scaled lipid accumulation score: inactive: ≤ 0

## O=c1cc(-c2ccccc2)[nH]c2nc(Cl)ccc12 [7-Chloro-4-hydroxy-2-phenyl-1,8-naphthyridine]
[2]
  scaled lipid accumulation score: inactive: ≤ 0

## O=C(O)Cc1cccc(OCCCN(Cc2cccc(C(F)(F)F)c2Cl)CC(c2ccccc2)c2ccccc2)c1 [GW 3965 hydrochloride]
[2]
  scaled lipid accumulation score: inactive: ≤ -0.001

## O=C(O)Cc1cccc(OCCCN(Cc2cccc(C(F)(F)F)c2Cl)CC(c2ccccc2)c2ccccc2)c1
[6]
  scaled lipid accumulation score: inactive: ≤ 0
[2]
  scaled lipid accumulation score: inactive: 0.181

## O=c1[nH]c(=O)c2nc3ccccc3nc2[nH]1 [Alloxazine]
[2]
  scaled lipid accumulation score: inactive: ≤ 0

## CC(=O)O[C@H]1C[C@@]2(C)[C@@H](C[C@@H](O)[C@H]3[C@@]4(C)CC[C@@H](O)[C@@H](C)[C@@H]4CC[C@@]32C)/C1=C(\CCC=C(C)C)C(=O)O [Fusidic acid sodium salt]
  scaled lipid accumulation score: inactive: ≤ 0

## CC(=O)O[C@H]1C[C@@]2(C)[C@@H](C[C@@H](O)[C@H]3[C@@]4(C)CC[C@@H](O)[C@@H](C)[C@@H]4CC[C@@]32C)/C1=C(\CCC=C(C)C)C(=O)O [Fusidic acid sodium]
[2]
  scaled lipid accumulation score: inactive: ≤ -0.07

## CC(=O)O[C@H]1C[C@@]2(C)[C@@H](C[C@@H](O)[C@H]3[C@@]4(C)CC[C@@H](O)[C@@H](C)[C@@H]4CC[C@@]32C)/C1=C(\CCC=C(C)C)C(=O)O [Fusidic acid]
[2]
  scaled lipid accumulation score: inactive: ≤ 0

## COc1cc(C2Oc3cc([C@H]4Oc5cc(O)cc(O)c5C(=O)[C@@H]4O)ccc3OC2CO)ccc1O (some centres not stated) [Silymarin]
[6]
  scaled lipid accumulation score: inactive: ≤ 0
[2]
  scaled lipid accumulation score: inactive: ≤ 0

## COc1cc(C2Oc3cc([C@H]4Oc5cc(O)cc(O)c5C(=O)[C@@H]4O)ccc3OC2CO)ccc1O (some centres not stated) [Silibinin]
[6]
  scaled lipid accumulation score: inactive: ≤ 0
[2]
  scaled lipid accumulation score: inactive: ≤ 0 and inactive: ≤ -0.027

## O=C1Nc2ccc(-c3cccnc3)cc2/C1=C/c1ccc[nH]1 [JAK3 Inhibitor VI]
[6]
  scaled lipid accumulation score: inactive: ≤ 0

## O=c1[nH]c2cc(C(F)(F)F)ccc2n1-c1cc(C(F)(F)F)ccc1O
[2]
  scaled lipid accumulation score: inactive: 0.323
Library stock concentration: 13.8 mM
  scaled lipid accumulation score: inactive: 0.046

## CN(C)CCn1nnnc1SCC1=C(C(=O)O)N2C(=O)[C@@H](NC(=O)Cc3csc(N)n3)[C@H]2SC1 [Cefotiam hydrochloride]
  scaled lipid accumulation score: inactive: ≤ 0

## N[C@@H](CCCC(=O)O)C(=O)O [L-2-aminoadipic acid]
[2]
  scaled lipid accumulation score: inactive: 0.368

## O=c1cc(-c2ccccc2)oc2cc(O)c(O)c(O)c12 [Baicalein]
[1]
  scaled lipid accumulation score: inactive: 0.078
[6]
  scaled lipid accumulation score: inactive: ≤ 0
[2]
  scaled lipid accumulation score: inactive: ≤ 0 and inactive: ≤ -0.002 and inactive: ≤ -0.027

## Br.Br.CN(CCc1ccc(Cl)c(Cl)c1)CCN1CCCC1 [BD 1008 dihydrobromide]
[2]
  scaled lipid accumulation score: active: 0.882

## CC(C)CCCC(C)N (configuration not stated) [Octodrine]
Library stock concentration: 15.5 mM
  scaled lipid accumulation score: inactive: 0.024

## CC(C)=CCC/C(C)=C/CC/C(C)=C/CC/C(C)=C/CC/C(C)=C/CC/C(C)=C/CC1=C(C)C(=O)c2ccccc2C1=O [Vitamin K2]
  scaled lipid accumulation score: inactive: 0.008

## Cn1ccnc1 [1-Methylimidazole]
[2]
  scaled lipid accumulation score: inactive: 0.068

## CC1(c2ccccc2)OC(C(=O)O)=CC1=O (configuration not stated) [Acifran]
[2]
  scaled lipid accumulation score: inactive: ≤ -0.006
